This note sets out measurements from patent publication US8592383B2, “Cycloalkyl-fused tetrahydroquinolines as CRTH2 receptor modulators” (Merck Sharp & Dohme Corp., priority 2011, dated 2013).

The Ki is the dissociation constant of the complex between target and ligand, obtained from inhibition or displacement.

This assay has as its target T1, hCRTH2 (Homo sapiens, UniProt Q9Y5Y4).
T1 sequence (Q9Y5Y4 1-395): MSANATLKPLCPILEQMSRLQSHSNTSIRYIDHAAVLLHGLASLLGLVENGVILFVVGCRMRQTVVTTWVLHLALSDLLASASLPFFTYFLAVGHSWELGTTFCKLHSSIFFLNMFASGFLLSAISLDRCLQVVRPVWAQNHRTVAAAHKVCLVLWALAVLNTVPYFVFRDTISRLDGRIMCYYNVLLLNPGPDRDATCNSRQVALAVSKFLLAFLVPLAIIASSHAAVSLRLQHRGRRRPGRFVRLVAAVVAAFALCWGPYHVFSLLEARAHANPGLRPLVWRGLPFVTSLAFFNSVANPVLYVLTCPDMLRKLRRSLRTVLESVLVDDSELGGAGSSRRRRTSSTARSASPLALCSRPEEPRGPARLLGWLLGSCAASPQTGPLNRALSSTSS
The assay is described as follows: biochemical. Conditions: Ki (nM), Table A; Radioligand Binding Assay A, [3H]PGD2, HEK-hCRTH2 membranes.
In turn, `O=C(O)CCC(=O)N(C1CC1)C1c2cc(F)ccc2N(C(=O)c2cc(F)cc(F)c2)C2CCC21` (single isomer, unassigned) [27C, 4-[cyclopropyl[cis, cis-3-(3,5-difluorobenzoyl)-6-fluoro-1,2,2a,3,8,8a-hexahydrocyclobuta[b]quinolin-8-yl]amino]-4-oxobutanoic acid] came in with a Ki of 5.1 to 20 nM.
With `O=C(O)CCC(=O)N(C1CC1)C1c2ccc(Cl)cc2N(C(=O)OCc2ccccc2)C2CCC21` (single isomer, unassigned) [27D, 3-(phenylmethyl) cis, cis-[(3-carboxy-1-oxopropyl)cyclopropylamino]-5-chloro-2,2a,8,8a-tetrahydrocyclobuta[b]quinoline-3(1H)-carboxylate] the figure was 201 to 7500 nM; with `O=C(O)CCC(=O)N(C1CC1)[C@@H]1c2cc(F)ccc2N(C(=O)c2cc(F)cc(F)c2)[C@@H]2CC[C@@H]21` (single isomer, unassigned) [27E, 4-[cyclopropyl[cis, cis-3-(3,5-difluorobenzoyl)-6-fluoro-1,2,2a,3,8,8a-hexahydrocyclobuta[b]quinolin-8-yl]amino]-4-oxobutanoic acid], 201 to 7500 nM; with `O=C(O)CCC(=O)N(C1CC1)[C@@H]1c2cc(F)ccc2N(C(=O)c2cccc(OC(F)(F)F)c2)[C@@H]2CC[C@@H]21` (single isomer, unassigned) [27F, 4-[cyclopropyl[cis, cis-6-fluoro-1,2,2a,3,8,8a-hexahydro-3-[3-(trifluoromethoxy)benzoyl]cyclobuta[b]quinolin-8-yl]amino]-4-oxobutanoic acid], 201 to 7500 nM.
To `O=C(O)CCC(=O)N(C1CC1)C1c2ccc(Cl)cc2N(C(=O)OCc2ccccc2)C2CCC21` (single isomer, unassigned) [27G, 3-(phenylmethyl) cis, cis-[(3-carboxyl-1-oxopropyl)cyclopropylamino]-5-chloro-2,2a,8,8a-tetrahydrocyclobuta[b]quinoline-3(1H)-carboxylate] belongs 5.1 to 20 nM; to `O=C(O)CCC(=O)N(C1CC1)C1c2ccc(Cl)cc2N(C(=O)c2ccc(OC(F)(F)F)cc2)C2CCC21` (single isomer, unassigned) [27H, 4-[[cis, cis-5-chloro-1,2,2a,3,8,8a-hexahydro-3-[4-(trifluoromethoxy)benzoyl]cyclobuta[b]quinolin-8-yl]cyclopropylamino]-4-oxobutanoic acid], 201 to 7500 nM; to `O=C(O)CCC(=O)N(C1CC1)C1c2ccc(Cl)cc2N(C(=O)c2cc(F)cc(F)c2)C2CCC21` (single isomer, unassigned) [27J, 4-[[cis, cis-5-chloro-3-(3,5-difluorobenzoyl)-1,2,2a,3,8,8a-hexahydrocyclobuta[b]quinolin-8-yl]cyclopropylamino]-4-oxobutanoic acid], 201 to 7500 nM.
To `O=C(O)CCC(=O)N(C1CC1)C1c2ccc(Cl)cc2N(C(=O)c2ccc(OC(F)(F)F)cc2)C2CCC21` (single isomer, unassigned) [27K, 4-[[cis, cis-5-chloro-1,2,2a,3,8,8a-hexahydro-3-[4-(trifluoromethoxy)benzoyl]cyclobuta[b]quinolin-8-yl]cyclopropylamino]-4-oxobutanoic acid] belongs 1 to 5 nM; to `O=C(O)CCC(=O)N(C1CC1)C1c2ccc(Cl)cc2N(C(=O)c2cccc(OC(F)(F)F)c2)C2CCC21` (single isomer, unassigned) [27L, 4-[[cis, cis-5-chloro-1,2,2a,3,8,8a-hexahydro-3-[3-(trifluoromethoxy)benzoyl]cyclobuta[b]quinolin-8-yl]cyclopropylamino]-4-oxobutanoic acid], 1 to 5 nM.
Compound `O=C(O)CCC(=O)N(C1CC1)C1c2ccc(Cl)cc2N(C(=O)c2cc(F)cc(F)c2)C2CCC21` (single isomer, unassigned) [27M, 4-[[cis, cis-5-chloro-3-(3,5-difluorobenzoyl)-1,2,2a,3,8,8a-hexahydrocyclobuta[b]quinolin-8-yl]cyclopropylamino]-4-oxobutanoic acid] returned a Ki of 5.1 to 20 nM.
To `O=C(O)CCC(=O)N(C1CC1)C1c2ccccc2N(C(=O)OCc2ccccc2)C2CCC21` (single isomer, unassigned) [27N, 3-(phenylmethyl) cis, cis-[(3-carboxy-1-oxopropyl)cyclopropylamino]-2,2a,8,8a-tetrahydrocyclobuta[b]quinoline-3(1H)-carboxylate] belongs 5.1 to 20 nM; to `O=C(O)CCC(=O)N(C1CC1)C1c2ccccc2N(C(=O)c2ccc(F)cc2)C2CCC21` (single isomer, unassigned) [27Q, 4-[cyclopropyl[cis, cis-3-(4-fluorobenzoyl)-1,2,2a,3,8,8a-hexahydrocyclobuta[b]quinolin-8-yl]amino]-4-oxobutanoic acid], 5.1 to 20 nM; to `O=C(O)CCC(=O)N(C1CC1)C1c2ccccc2N(C(=O)c2cccc(F)c2)C2CCC21` (single isomer, unassigned) [27R, 4-[cyclopropyl[cis, cis-3-(3-fluorobenzoyl)-1,2,2a,3,8,8a-hexahydrocyclobuta[b]quinolin-8-yl]amino]-4-oxobutanoic acid], 5.1 to 20 nM.
To `O=C(O)CCC(=O)N(C1CC1)C1c2ccccc2N(C(=O)c2cccc(OC(F)(F)F)c2)C2CCC21` (single isomer, unassigned) [27S, 4-[cyclopropyl[cis,cis-1,2,2a,3,8,8a-hexahydro-3-[3-(trifluoromethoxy)benzoyl]cyclobuta[b]quinolin-8-yl]amino]-4-oxobutanoic acid] belongs 1 to 5 nM; to `O=C(O)CCC(=O)N(C1CC1)C1c2ccc(Cl)cc2N(C(=O)c2cccc(OC(F)(F)F)c2)C2CCC21` (single isomer, unassigned) [27i, 4-[[cis, cis-5-chloro-1,2,2a,3,8,8a-hexahydro-3-[3-(trifluoromethoxy)benzoyl]cyclobuta[b]quinolin-8-yl]cyclopropylamino]-4-oxobutanoic acid], 201 to 7500 nM; to `O=C(O)COC(=O)N(C1CC1)C1c2ccccc2N(C(=O)OCc2ccccc2)C2CCCC21` (single isomer, unassigned) [32D], 20.1 to 200 nM.
With `O=C(O)COC(=O)N(C1CC1)C1c2ccccc2N(C(=O)OCc2ccccc2)C2CCCC21` (single isomer, unassigned) [32E] the figure was 1 to 5 nM; with `O=C(O)COC(=O)N(C1CC1)[C@H]1c2cc(F)ccc2N(C(=O)OCc2ccccc2)[C@H]2CCC[C@H]21` (single isomer, unassigned) [32F], 1 to 5 nM.
`O=C(O)COC(=O)N(C1CC1)[C@@H]1c2ccccc2N(C(=O)OCc2ccccc2)[C@@H]2CC[C@@H]21` (single isomer, unassigned) [32G] returned a Ki of 1 to 5 nM.
For `O=C(O)COC(=O)N(C1CC1)C1c2ccccc2N(C(=O)c2ccc(OC(F)(F)F)cc2)C2CCC21` (single isomer, unassigned) [32H, [[[cyclopropyl[cis,cis-1,2,2a,3,8,8a-hexahydro-3-[4-(trifluoromethoxy)benzoyl]cyclobuta[b]quinolin-8-yl]amino]carbonyl]oxy]acetic acid], the Ki is 1 to 5 nM.
Compound `O=C(O)COC(=O)N(C1CC1)C1c2ccccc2N(C(=O)c2cccc(F)c2)C2CCC21` (single isomer, unassigned) [32J, [[[cyclopropyl[cis, cis-3-(3-fluorobenzoyl)-1,2,2a,3,8,8a-hexahydrocyclobuta[b]quinolin-8-yl]amino]carbonyl]oxy] acetic acid] came in with a Ki of 1 to 5 nM.
With `O=C(O)COC(=O)N(C1CC1)C1c2ccccc2N(C(=O)c2ccc(F)c(F)c2)C2CCC21` (single isomer, unassigned) [32K] the figure was 1 to 5 nM; with `O=C(O)COC(=O)N(C1CC1)C1c2ccccc2N(C(=O)c2ccc(F)cc2)C2CCCC21` (single isomer, unassigned) [32M, [[[cyclopropyl[cis, cis-4-(4-fluorobenzoyl)-2,3,3a,4,9,9a-hexahydro-1H-cyclopenta[b]quinolin-9-yl]amino]carbonyl]oxy]acetic acid], 1 to 5 nM.
To `O=C(O)COC(=O)N(C1CC1)[C@@H]1c2ccccc2N(C(=O)c2ccc(C(F)(F)F)cc2)[C@@H]2CCC[C@@H]21` (single isomer, unassigned) [32N, [[[cyclopropyl[cis, cis-2,3,3a,4,9,9a-hexahydro-4-[4-(trifluoromethyl)benzoyl]-1H-cyclopenta[b]quinolin-9-yl]amino]carbonyl]oxy]acetic acid] belongs 1 to 5 nM.
With `CCc1ccc(C(=O)N2c3ccccc3C(N(C(=O)OCC(=O)O)C3CC3)C3CCCC32)cc1` (single isomer, unassigned) [32O, [[[cyclopropyl[cis, cis-4-(4-ethylbenzoyl)-2,3,3a,4,9,9a-hexahydro-1H-cyclopenta[b]quinolin-9-yl]amino]carbonyl]oxy]acetic acid] the figure was 1 to 5 nM.
The compound `O=C(O)COC(=O)N(C1CC1)C1c2ccccc2N(C(=O)c2ccc(F)c(F)c2)C2CCCC21` (single isomer, unassigned) [32P, [[[cyclopropyl[cis ,cis-4-(3,4-difluorobenzoyl)-2,3,3a,4,9,9a-hexahydro-1H-cyclopenta[b]quinolin-9-yl]amino]carbonyl]oxy]acetic acid] returned a Ki of 5.1 to 20 nM.
With `O=C(O)COC(=O)N(C1CC1)C1c2ccccc2N(C(=O)c2ccc3ccccc3c2)C2CCCC21` (single isomer, unassigned) [32Q, [[[cyclopropyl[cis, cis-2,3,3a,4,9,9a-hexahydro-4-(2-naphthalenylcarbonyl)-1H-cyclopenta[b]quinolin-9-yl]amino]carbonyl]oxy]acetic acid] the figure was 1 to 5 nM.
